# Measured values reported in the supplement of paper PMC8728848.
# This is one part of the list.
# B1: Cohesin-mDC-ASGPR (Macaca mulatta) (protein)
# chain: LDITSHHHHHHDDLDAVRIKVDTVNAKPGDTVRIPVRFSGIPSKGIANCDFVYSYDPNVLEIIEIEPGDIIVDPNPDKSFDTAVYPDRKIIVFLFAEDSGTGAYAITKDGVFATIVAKVKEGAPNGLSVIKFVEVGGFANNDLVEQKTQFFDGGVNVGDTTEPATPTTPVTTPTTTDDLDAASSQNSKFQRDLVTLRTDFSNFTSNTVAEIQALTSQGSSVEEMIASLKAEVEVIKQEQQAVHSEMLLRVQRLMQDLNKLTCQVATLKNNASTERTCCPVNWVEHQDSCYWFSRSGMPWAEAEKHCQLENAHLVVINSREEQNFVQEHLSFAYTWMGLSDREGAWKWVDGTDYETGFQNWKPGQPDDWQGHGLGGGEDCAHFHPDGRWNDDVCQRPYYWVCEAGLTQASQESH
# Key:
# Assay in all cases: glycan array binding signal (z-score within array); higher = stronger binding
# Conditions in all cases: glycan notation: IUPAC condensed, linker removed
# [1] = biological target: Neu5Ac(a2-3)Gal(b1-4)GlcNAc(b1-6)GalNAc
# How it was run: (§1)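 Columns mapping to the same glycan were averaged after glycan names were converted to IUPAC-condensed notation. The data come from 3228 arrays in the Consortium for Functional Glycomics database, limited to those with an available protein sequence. Binding is reported as a within-array Z-score averaged across arrays of one protein sequence and across linkers.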
# [2] = biological target: Neu5Ac(a2-3)Gal(b1-4)GlcNAc(b1-6)[Gal(b1-3)]GalNAc
# How it was run: as §1
# [3] = biological target: Neu5Ac(a2-3)Gal(b1-4)GlcNAc(b1-6)[Neu5Ac(a2-3)Gal(b1-3)]GalNAc
# How it was run: as §1
# [4] = biological target: Neu5Ac(a2-3)Gal(b1-4)GlcNAc6S
# How it was run: as §1
# [5] = biological target: Neu5Ac(a2-3)Gal(b1-4)[Fuc(a1-3)]GlcNAc
# How it was run: as §1
# [6] = biological target: Neu5Ac(a2-3)Gal(b1-4)[Fuc(a1-3)]GlcNAc(b1-2)Man
# How it was run: as §1
# [7] = biological target: Neu5Ac(a2-3)Gal(b1-4)[Fuc(a1-3)]GlcNAc(b1-3)Gal
# How it was run: as §1
# [8] = biological target: Neu5Ac(a2-3)Gal(b1-4)[Fuc(a1-3)]GlcNAc(b1-3)Gal(b1-4)GlcNAc
# How it was run: as §1
# [9] = biological target: Neu5Ac(a2-3)Gal(b1-4)[Fuc(a1-3)]GlcNAc(b1-3)Gal(b1-4)[Fuc(a1-3)]GlcNAc(b1-3)Gal(b1-4)[Fuc(a1-3)]GlcNAc
# How it was run: as §1
# [10] = biological target: Neu5Ac(a2-3)Gal(b1-4)[Fuc(a1-3)]GlcNAc(b1-3)GalNAc
# How it was run: as §1
# [11] = biological target: Neu5Ac(a2-3)Gal(b1-4)[Fuc(a1-3)]GlcNAc(b1-6)[Gal(b1-3)]GalNAc
# How it was run: as §1
# [12] = biological target: Neu5Ac(a2-3)Gal(b1-4)[Fuc(a1-3)]GlcNAc(b1-6)[Neu5Ac(a2-3)Gal(b1-3)]GalNAc
# How it was run: as §1
# [13] = biological target: Neu5Ac(a2-3)Gal(b1-4)[Fuc(a1-3)]GlcNAc6S
# How it was run: as §1
# [14] = biological target: Neu5Ac(a2-3)Gal6S(b1-4)GlcNAc
# How it was run: as §1
# [15] = biological target: Neu5Ac(a2-3)Gal6S(b1-4)[Fuc(a1-3)]GlcNAc
# How it was run: as §1
# Neu5Ac(a2-3)GalNAc = biological target: Neu5Ac(a2-3)GalNAc
# How it was run: as §1
# [16] = biological target: Neu5Ac(a2-3)GalNAc(b1-4)GlcNAc
# How it was run: as §1
# [17] = biological target: Neu5Ac(a2-3)[GalNAc(b1-4)]Gal(b1-4)Glc
# How it was run: as §1
# [18] = biological target: Neu5Ac(a2-3)[GalNAc(b1-4)]Gal(b1-4)GlcNAc
# How it was run: as §1
# [19] = biological target: Neu5Ac(a2-3)[GalNAc(b1-4)]Gal(b1-4)GlcNAc(b1-3)GalNAc
# How it was run: as §1
# [20] = biological target: Neu5Ac(a2-3)[Neu5Ac(a2-6)]GalNAc
# How it was run: as §1
# Neu5Ac(a2-6)Gal = biological target: Neu5Ac(a2-6)Gal
# How it was run: as §1
# [21] = biological target: Neu5Ac(a2-6)Gal(b1-3)GlcNAc(b1-3)[Gal(b1-4)GlcNAc(b1-6)]Gal(b1-4)Glc
# How it was run: as §1
# Neu5Ac(a2-6)Gal(b1-4)Glc = biological target: Neu5Ac(a2-6)Gal(b1-4)Glc
# How it was run: as §1
# [22] = biological target: Neu5Ac(a2-6)Gal(b1-4)GlcNAc
# How it was run: as §1
# [23] = biological target: Neu5Ac(a2-6)Gal(b1-4)GlcNAc(b1-2)Man
# How it was run: as §1
# [24] = biological target: Neu5Ac(a2-6)Gal(b1-4)GlcNAc(b1-2)Man(a1-3)Man(b1-4)GlcNAc(b1-4)GlcNAc
# How it was run: as §1
# [25] = biological target: Neu5Ac(a2-6)Gal(b1-4)GlcNAc(b1-2)Man(a1-3)[Gal(b1-4)GlcNAc(b1-2)Man(a1-6)]Man(b1-4)GlcNAc(b1-4)GlcNAc
# How it was run: as §1
# [26] = biological target: Neu5Ac(a2-6)Gal(b1-4)GlcNAc(b1-2)Man(a1-3)[GlcNAc(b1-2)Man(a1-6)]Man(b1-4)GlcNAc(b1-4)GlcNAc
# How it was run: as §1
# [27] = biological target: Neu5Ac(a2-6)Gal(b1-4)GlcNAc(b1-2)Man(a1-3)[GlcNAc(b1-4)][Neu5Ac(a2-6)Gal(b1-4)GlcNAc(b1-2)Man(a1-6)]Man(b1-4)GlcNAc(b1-4)GlcNAc
# How it was run: as §1
# [28] = biological target: Neu5Ac(a2-6)Gal(b1-4)GlcNAc(b1-2)Man(a1-3)[Man(a1-6)]Man(b1-4)GlcNAc(b1-4)GlcNAc
# How it was run: as §1
# [29] = biological target: Neu5Ac(a2-6)Gal(b1-4)GlcNAc(b1-2)Man(a1-3)[Neu5Ac(a2-3)Gal(b1-4)GlcNAc(b1-2)Man(a1-6)]Man(b1-4)GlcNAc(b1-4)GlcNAc
# How it was run: as §1
# [30] = biological target: Neu5Ac(a2-6)Gal(b1-4)GlcNAc(b1-2)Man(a1-3)[Neu5Ac(a2-6)Gal(b1-4)GlcNAc(b1-2)Man(a1-6)]Man(b1-4)GlcNAc(b1-4)GlcNAc
# How it was run: as §1
# [31] = biological target: Neu5Ac(a2-6)Gal(b1-4)GlcNAc(b1-2)Man(a1-3)[Neu5Ac(a2-6)Gal(b1-4)GlcNAc(b1-2)Man(a1-6)]Man(b1-4)GlcNAc(b1-4)[Fuc(a1-6)]GlcNAc
# How it was run: as §1
# [32] = biological target: Neu5Ac(a2-6)Gal(b1-4)GlcNAc(b1-2)Man(a1-6)Man(b1-4)GlcNAc(b1-4)GlcNAc
# How it was run: as §1
# [33] = biological target: Neu5Ac(a2-6)Gal(b1-4)GlcNAc(b1-2)Man(a1-6)[Gal(b1-4)GlcNAc(b1-2)Man(a1-3)]Man(b1-4)GlcNAc(b1-4)GlcNAc
# How it was run: as §1
# [34] = biological target: Neu5Ac(a2-6)Gal(b1-4)GlcNAc(b1-2)Man(a1-6)[GlcNAc(b1-2)Man(a1-3)]Man(b1-4)GlcNAc(b1-4)GlcNAc
# How it was run: as §1
# [35] = biological target: Neu5Ac(a2-6)Gal(b1-4)GlcNAc(b1-2)Man(a1-6)[Man(a1-3)]Man(b1-4)GlcNAc(b1-4)GlcNAc
# How it was run: as §1
# [36] = biological target: Neu5Ac(a2-6)Gal(b1-4)GlcNAc(b1-2)[Neu5Ac(a2-6)Gal(b1-4)GlcNAc(b1-4)]Man(a1-3)[GlcNAc(b1-4)][Neu5Ac(a2-6)Gal(b1-4)GlcNAc(b1-2)[Neu5Ac(a2-6)Gal(b1-4)GlcNAc(b1-6)]Man(a1-6)]Man(b1-4)GlcNAc(b1-4)GlcNAc
# How it was run: as §1
# [37] = biological target: Neu5Ac(a2-6)Gal(b1-4)GlcNAc(b1-2)[Neu5Ac(a2-6)Gal(b1-4)GlcNAc(b1-4)]Man(a1-3)[GlcNAc(b1-4)][Neu5Ac(a2-6)Gal(b1-4)GlcNAc(b1-4)Man(a1-6)]Man(b1-4)GlcNAc(b1-4)GlcNAc
# How it was run: as §1
# [38] = biological target: Neu5Ac(a2-6)Gal(b1-4)GlcNAc(b1-2)[Neu5Ac(a2-6)Gal(b1-4)GlcNAc(b1-6)]Man(a1-6)[Neu5Ac(a2-6)Gal(b1-4)GlcNAc(b1-2)Man(a1-3)][GlcNAc(b1-4)]Man(b1-4)GlcNAc(b1-4)GlcNAc
# How it was run: as §1
# [39] = biological target: Neu5Ac(a2-6)Gal(b1-4)GlcNAc(b1-3)Gal(b1-3)GlcNAc
# How it was run: as §1
# [40] = biological target: Neu5Ac(a2-6)Gal(b1-4)GlcNAc(b1-3)Gal(b1-4)GlcNAc
# How it was run: as §1
# [41] = biological target: Neu5Ac(a2-6)Gal(b1-4)GlcNAc(b1-3)Gal(b1-4)GlcNAc(b1-2)Man(a1-3)[Neu5Ac(a2-6)Gal(b1-4)GlcNAc(b1-3)Gal(b1-4)GlcNAc(b1-2)Man(a1-6)]GalNAc
# How it was run: as §1
# [42] = biological target: Neu5Ac(a2-6)Gal(b1-4)GlcNAc(b1-3)Gal(b1-4)GlcNAc(b1-3)Gal(b1-4)GlcNAc
# How it was run: as §1
# [43] = biological target: Neu5Ac(a2-6)Gal(b1-4)GlcNAc(b1-3)Gal(b1-4)GlcNAc(b1-3)Gal(b1-4)GlcNAc(b1-2)Man(a1-3)[Neu5Ac(a2-6)Gal(b1-4)GlcNAc(b1-3)Gal(b1-4)GlcNAc(b1-3)Gal(b1-4)GlcNAc(b1-2)Man(a1-6)]GalNAc
# How it was run: as §1
binder,measurement,setting,value
B1,glycan array binding signal (z-score),[1],3.67
same,glycan array binding signal (z-score),[2],-0.395
same,glycan array binding signal (z-score),[3],-0.412
same,glycan array binding signal (z-score),[4],-0.429
same,glycan array binding signal (z-score),[5],-0.414
same,glycan array binding signal (z-score),[6],-0.315
same,glycan array binding signal (z-score),[7],-0.431
same,glycan array binding signal (z-score),[8],-0.373
same,glycan array binding signal (z-score),[9],-0.266
same,glycan array binding signal (z-score),[10],-0.085
same,glycan array binding signal (z-score),[11],-0.423
same,glycan array binding signal (z-score),[12],-0.287
same,glycan array binding signal (z-score),[13],-0.425
same,glycan array binding signal (z-score),[14],-0.408
same,glycan array binding signal (z-score),[15],-0.396
same,glycan array binding signal (z-score),Neu5Ac(a2-3)GalNAc,-0.383
same,glycan array binding signal (z-score),[16],-0.409
same,glycan array binding signal (z-score),[17],2.54
same,glycan array binding signal (z-score),[18],3.07
same,glycan array binding signal (z-score),[19],2.21
same,glycan array binding signal (z-score),[20],-0.073
same,glycan array binding signal (z-score),Neu5Ac(a2-6)Gal,-0.424
same,glycan array binding signal (z-score),[21],-0.416
same,glycan array binding signal (z-score),Neu5Ac(a2-6)Gal(b1-4)Glc,-0.396
same,glycan array binding signal (z-score),[22],-0.389
same,glycan array binding signal (z-score),[23],-0.389
same,glycan array binding signal (z-score),[24],-0.43
same,glycan array binding signal (z-score),[25],-0.422
same,glycan array binding signal (z-score),[26],-0.435
same,glycan array binding signal (z-score),[27],-0.414
same,glycan array binding signal (z-score),[28],-0.427
same,glycan array binding signal (z-score),[29],-0.43
same,glycan array binding signal (z-score),[30],-0.424
same,glycan array binding signal (z-score),[31],-0.432
same,glycan array binding signal (z-score),[32],-0.435
same,glycan array binding signal (z-score),[33],-0.436
same,glycan array binding signal (z-score),[34],-0.423
same,glycan array binding signal (z-score),[35],-0.435
same,glycan array binding signal (z-score),[36],-0.401
same,glycan array binding signal (z-score),[37],-0.376
same,glycan array binding signal (z-score),[38],-0.423
same,glycan array binding signal (z-score),[39],-0.412
same,glycan array binding signal (z-score),[40],-0.418
same,glycan array binding signal (z-score),[41],-0.323
same,glycan array binding signal (z-score),[42],-0.423
same,glycan array binding signal (z-score),[43],-0.235
